Measured values: the supplement of paper PMC4604168 (melanoma cell lines)
This is one part of the list. Single values are uncertain, as repeats are few or missing.

Columns and labels:
Assay in all cases: cell count relative to DMSO control; melanoma cells; higher = more viable cells
Details in all cases: library dose: standard library concentration; 72 h
[1] = tested on: SkMel28
[2] = tested on: SkMel2
[3] = tested on: SkMel30
[4] = tested on: SkMel5
[5] = tested on: UACC257
[6] = tested on: UACC62
[7] = tested on: WM115
[8] = tested on: WM1716
[9] = tested on: WM1745
[10] = tested on: WM3526
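Further: cells treated in 1,536-well plates, then fixed and DAPI-stained, with nuclei counted from automated high-throughput microscope images.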

| Compound | cell count [1] [%] | cell count [2] [%] | cell count [3] [%] | cell count [4] [%] | cell count [5] [%] | cell count [6] [%] | cell count [7] [%] | cell count [8] [%] | cell count [9] [%] | cell count [10] [%] |
| --- | --- | --- | --- | --- | --- | --- | --- | --- | --- | --- |
| COCC[n+]1c2c(n(Cc3cnccn3)c1C)C(=O)c1ccccc1C2=O + COc1cc(Nc2ncc(F)c(Nc3ccc4c(n3)NC(=O)C(C)(C)O4)n2)cc(OC)c1OC [Tamatinib] (first compound 0.002 µM, partner dose 2 µM) | 25.1 | 27.2 | 58.7 | 28.2 | 20.7 | 54.8 | 48.6 | 66.9 | 28.8 | 44.9 |
| Nc1cccc2c1CN(C1CCC(=O)NC1=O)C2=O (stereo not given) [lenalidomide] + COc1cc2ncnc(Nc3ccc(Oc4ccccc4)cc3)c2cc1OC [SrcI1] (first compound 5 µM, partner dose 10 µM) | 67 | 82.3 | 84.3 | 60.7 | 89.7 | 65.8 | 67.6 | 69.4 | 56 | 57.7 |
| C#Cc1cccc(Nc2ncnc3cc(OCCOC)c(OCCOC)cc23)c1 [erlotinib] + Cn1cncc1[C@@](N)(c1ccc(Cl)cc1)c1ccc2c(c1)c(-c1cccc(Cl)c1)cc(=O)n2C [tipifarnib] (first compound 4 µM, partner dose 0.05 µM) | 51.5 | 80.9 | 65.9 | 52.7 | 84.8 | 41.9 | 59.8 | 55.3 | 64.4 | 76.7 |
| COCC[n+]1c2c(n(Cc3cnccn3)c1C)C(=O)c1ccccc1C2=O + c1cc(-c2cnn3cc(-c4ccc(OCCN5CCCCC5)cc4)cnc23)ccn1 [Dorsomorphin] (first compound 0.002 µM, partner dose 2 µM) | 27.3 | 18.1 | 65.5 | 46.7 | 25.6 | 51.9 | 48 | 60.2 | 48.3 | 43.2 |
| Cn1c(Nc2ccc(C(F)(F)F)cc2)nc2cc(Oc3ccnc(-c4ncc(C(F)(F)F)[nH]4)c3)ccc21 + COc1cc(Nc2ncc(F)c(Nc3ccc4c(n3)NC(=O)C(C)(C)O4)n2)cc(OC)c1OC [Tamatinib] (first compound 0.4 µM, partner dose 2 µM) | 73.7 | 81.1 | 100 | 52.2 | 85.1 | 58.1 | 54.4 | 58.9 | 24.5 | 61 |
| COCC[n+]1c2c(n(Cc3cnccn3)c1C)C(=O)c1ccccc1C2=O + Cn1nnc2c(C(N)=O)ncn2c1=O [temozolomide] (first compound 0.002 µM, partner dose 10 µM) | 31.8 | 39.1 | 54.4 | 28.2 | 25.8 | 42.9 | 65.4 | 51.5 | 106 | 35.2 |
| Clc1ccc(Nc2nnc(Cc3ccncc3)c3ccccc23)cc1 [vatalanib] + NCC(=O)Nc1ccc(-n2nc(C(F)(F)F)cc2-c2ccc3c(ccc4ccccc43)c2)cc1 [OSU03012] (first compound 10 µM, partner dose 5 µM) | 11.1 | 17.4 | 18.9 | 31.5 | 63.4 | 50.7 | 54.4 | 64.1 | 24.9 | 26.6 |
| C#Cc1cccc(Nc2ncnc3cc(OCCOC)c(OCCOC)cc23)c1 [erlotinib] + CO[C@@H]1[C@H](N(C)C(=O)c2ccccc2)C[C@H]2O[C@]1(C)n1c3ccccc3c3c4c(c5c6ccccc6n2c5c31)C(=O)NC4 [Midostaurin] (first compound 4 µM, partner dose 0.4 µM) | 42.2 | 53.5 | 63.7 | 40.4 | 55.8 | 41.2 | 35.6 | 42.1 | 25.1 | 49.7 |
| Cn1c(Nc2ccc(C(F)(F)F)cc2)nc2cc(Oc3ccnc(-c4ncc(C(F)(F)F)[nH]4)c3)ccc21 + NC(=O)Nc1cc(-c2cccc(F)c2)sc1C(=O)N[C@H]1CCCNC1 [AZD7762] (first compound 0.4 µM, partner dose 0.1 µM) | 31.3 | 32.5 | 55.8 | 34.5 | 89.1 | 41 | 23.5 | 60.4 | 47 | 40.2 |
| C#Cc1cccc(Nc2ncnc3cc(OCCOC)c(OCCOC)cc23)c1 [erlotinib] + COC(=O)c1sccc1S(=O)(=O)Nc1ccc(Nc2ccccc2)cc1OC [GSK0660] (first compound 4 µM, partner dose 5 µM) | 66.7 | 93.7 | 68.6 | 66.6 | 80.7 | 81.4 | 68 | 76.1 | 63.9 | 63.2 |
| Cn1c(Nc2ccc(C(F)(F)F)cc2)nc2cc(Oc3ccnc(-c4ncc(C(F)(F)F)[nH]4)c3)ccc21 + COc1cc(N2CCC(N3CCN(C)CC3)CC2)ccc1Nc1ncc(Cl)c(Nc2ccccc2S(=O)(=O)C(C)C)n1 [NVP-TAE684] (first compound 0.4 µM, partner dose 0.4 µM) | 29.7 | 16.5 | 50.1 | 37.3 | 65.7 | 57.5 | 37.2 | 67.6 | 30.6 | 35.5 |
| COCC[n+]1c2c(n(Cc3cnccn3)c1C)C(=O)c1ccccc1C2=O + CN(NC(=O)CC(=O)NN(C)C(=S)c1ccccc1)C(=S)c1ccccc1 [STA4783] (first compound 0.002 µM, partner dose 0.03 µM) | 19.2 | 29.2 | 62.2 | 22.6 | 35.6 | 66.1 | 22.9 | 38.6 | 24.9 | 32.8 |
| COCC[n+]1c2c(n(Cc3cnccn3)c1C)C(=O)c1ccccc1C2=O + CC1(C)NC(=O)N(c2ccc([N+](=O)[O-])c(C(F)(F)F)c2)C1=O [nilutamide] (first compound 0.002 µM, partner dose 5 µM) | 39.9 | 49.7 | 87 | 49.1 | 34.5 | 77.2 | 72.2 | 64.4 | 68.6 | 54.9 |
| COCC[n+]1c2c(n(Cc3cnccn3)c1C)C(=O)c1ccccc1C2=O + O=C(CCCCCCC(=O)Nc1ccccc1)NO [vorinostat] (first compound 0.002 µM, partner dose 0.4 µM) | 47.3 | 37.9 | 90.7 | 53.7 | 25.2 | 80.8 | 73.2 | 54.2 | 110 | 41.1 |
| Nc1cccc2c1CN(C1CCC(=O)NC1=O)C2=O (stereo not given) [lenalidomide] + CC1(C)NC(=O)N(c2ccc([N+](=O)[O-])c(C(F)(F)F)c2)C1=O [nilutamide] (first compound 5 µM, partner dose 5 µM) | 97.1 | 101 | 102 | 102 | 105 | 91.6 | 85.4 | 84.4 | 100 | 84 |
| O=C(CCCCCCC(=O)Nc1ccccc1)NO [vorinostat] + COc1ccc2c(c1)CCC1C2CCC2(C)C(NCCCCCCN3C(=O)C=CC3=O)CCC12 [U73122] (first compound 0.4 µM, partner dose 2 µM) | 45 | 69.9 | 95.5 | 62.5 | 57.3 | 59.8 | 77.5 | 81.2 | 71.5 | 61.4 |
| O=C(CCCCCCC(=O)Nc1ccccc1)NO [vorinostat] + C=CCn1c(=O)c2cnc(Nc3ccc(N4CCN(C)CC4)cc3)nc2n1-c1cccc(C(C)(C)O)n1 [MK1775] (first compound 0.4 µM, partner dose 0.1 µM) | 27.7 | 62.7 | 60.5 | 59 | 77.4 | 68.5 | 44.2 | 78.6 | 70.9 | 65.8 |
| Nc1cccc2c1CN(C1CCC(=O)NC1=O)C2=O (stereo not given) [lenalidomide] + O=c1cc(-c2cccc3c2Sc2ccccc2S3)oc(N2CCOCC2)c1 [KU55933] (first compound 5 µM, partner dose 5 µM) | 94.3 | 80.9 | 97.5 | 90.5 | 106 | 107 | 111 | 91.4 | 81.8 | 77.4 |
| COCC[n+]1c2c(n(Cc3cnccn3)c1C)C(=O)c1ccccc1C2=O + Cc1cc(N2CCOCC2)cc2[nH]c(-c3c(NC[C@@H](O)c4cccc(Cl)c4)cc[nH]c3=O)nc12 [BMS536924] (first compound 0.002 µM, partner dose 1 µM) | 43.9 | 25.2 | 57 | 21 | 30.4 | 69.8 | 55.6 | 59.1 | 59.8 | 26.7 |
| C#Cc1cccc(Nc2ncnc3cc(OCCOC)c(OCCOC)cc23)c1 [erlotinib] + O=c1cc(-c2cccc3c2Sc2ccccc2S3)oc(N2CCOCC2)c1 [KU55933] (first compound 4 µM, partner dose 5 µM) | 50.9 | 88.7 | 64.5 | 59.3 | 101 | 84.6 | 68.5 | 79.7 | 60.4 | 66.4 |
| COCC[n+]1c2c(n(Cc3cnccn3)c1C)C(=O)c1ccccc1C2=O + CC(C)CCN1c2nc(Nc3cc(F)c(O)c(F)c3)ncc2N(C)C(=O)C1C [BID1870] (first compound 0.002 µM, partner dose 1 µM) | 40.2 | 19.1 | 44.8 | 32.7 | 24.7 | 51.2 | 64 | 52.1 | 83.1 | 26.9 |
| Clc1ccc(Nc2nnc(Cc3ccncc3)c3ccccc23)cc1 [vatalanib] + CC1(C)NC(=O)N(c2ccc([N+](=O)[O-])c(C(F)(F)F)c2)C1=O [nilutamide] (first compound 10 µM, partner dose 5 µM) | 73.8 | 71.9 | 82.2 | 65.2 | 66.4 | 89.5 | 78.6 | 88.3 | 50.4 | 74.6 |
| COCC[n+]1c2c(n(Cc3cnccn3)c1C)C(=O)c1ccccc1C2=O + CC(C)(C)c1cnc(CSc2cnc(NC(=O)C3CCNCC3)s2)o1 [SNS-032] (first compound 0.002 µM, partner dose 0.05 µM) | 27 | 14.5 | 58.9 | 35.9 | 21.8 | 68.7 | 54.1 | 44.2 | 69.1 | 30 |
